In the supplement of paper PMC10126150 one finds switch fluorescence ratio data, which are given here for 67 sequences.

Values marked as one replicate rest on one cluster of the flow cell; about a third of the high ones do not repeat.

This data set deals with ATP. In words: switch fluorescence ratio, 500 uM ATP over buffer (Cy3 cluster intensity, sum of 5 cycles each) (fold (ratio)); higher = stronger signal-on switching upon ATP binding; sequences stand for … in TCGTCGGCAGCGTCAGATGTGTATAAGAGACAGTTTTTTTTTTTTTTTTTTTTTTTTT…TC. Particulars: aptamer strand: ATP DNA aptamer (quencher-CACCTGGGGGAGTATTGCGGAGGAAGG + anchor), 100 nM annealed; ATP concentration: 500 uM; one replicate. In short, it runs like this:
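Exposure to 500 uM ATP lasted 15 min at 22 °C before imaging, and a selection-buffer image was taken beforehand, for Cy3-labelled switching-strand clusters on a modified Illumina MiSeq flow-cell annealed to 100 nM quencher-labelled ATP aptamer. Five buffer/ATP cycles were run with NaOH stripping and re-annealing between them. The fluorescence ratio per cluster is summed target-cycle over summed buffer-cycle Cy3 intensity, averaged per switch-domain sequence. Clusters outside 100-1000 RFU were excluded.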
For CCTGGACTGT, the switch fluorescence ratio was determined as 1.05.
The figure for TTACTGATTT is 1; for CTCTTAGT it is 0.99; for CGGACGAA it is 0.957.
For the sequence CGGAGGTTGG, the switch fluorescence ratio was 0.959.
The figure for ATGAGATGTC is 1.19.
Take TATCGAGGTT: the switch fluorescence ratio was 1.01.
For the sequence GAGGTAAGAC, the switch fluorescence ratio came to 2.1.
For ACGGCCGTAT, the switch fluorescence ratio amounted to 1.01.
The figure for GCCGTCCCTA is 0.99; for CTCGATTGGT it is 0.957.
As to GGTACTTATG, the switch fluorescence ratio came to 0.976.
The figure for CGCGACTTTA is 1.07.
The figure for GTTGAAAGCA is 1.04; for CAGAGATAGG it is 0.964.
The figure for CCGGCCTGTT is 0.995; for ATTCAACTTA it is 1; for TCTGTGTTAC it is 1.17.
On to GCGGATTAA, for which the switch fluorescence ratio was 1.04.
Turning to AGCTCGGCTT, the switch fluorescence ratio was 0.973.
The figure for TAAGGCCCGC is 1.05; for CTCAACAGCC it is 1.09.
The figure for GATATGATTG is 0.99; for GCTTAAAGAT it is 1.13; for TGAAAAGCAG it is 1.
The figure for ACTGGGGTAA is 1; for TCGACGACAC it is 2.59.
Regarding CTTCTCACAT, the switch fluorescence ratio was found to be 1.01.
As for CGCGGTAGCT, the switch fluorescence ratio came out at 0.985.
Turning to CAGGCGTTCA, the switch fluorescence ratio stood at 1.01.
The figure for GGTGCGAAGG is 1.01; for ATCCTACGGG it is 1.12.
As to CGCCCCTGAC, the switch fluorescence ratio amounted to 1.6.
With CTCTTGGACG, the switch fluorescence ratio was 0.983.
The figure for AGGAGTCTAG is 0.976; for CAGTATCTTG it is 1.01.
The figure for CAGCCAACCG is 1.05.
As to TGTATTCGGA, the switch fluorescence ratio came out at 0.943.
The figure for TGTATCTGCG is 1; for CTTCGTTAGG it is 1.02.
The figure for TCGACTTTCC is 1.74; for GTGGAGTGTG it is 1.02; for TAAAGTTTG it is 0.992.
The figure for TGGAATGAAA is 1; for GTTGTGCGCG it is 0.984.
As for GAGCCAATT, the switch fluorescence ratio stood at 1.
The figure for TTAATTTTTA is 1.02; for TGCAAGGCAC it is 1.06; for AAGTTCGTGG it is 0.991.
The figure for AGAATTGGCC is 1.02.
As to GGGTGTTGAG, the switch fluorescence ratio was 0.991.
For the sequence TGGTCGGGTA, the switch fluorescence ratio is 1.04.
The figure for CAGGCACCAC is 1.04; for TACACTGAGC it is 1.06.
Regarding GAAGGCTTGG, the switch fluorescence ratio is 1.03.
The figure for ATCTAAGCCC is 0.962.
The figure for TGGTGGGTGA is 0.964; for CTAGACAGGC it is 1.05; for GATCTGCTGC it is 1.14.
The figure for GATGGCATT is 1.45; for ATGGCAAGAA it is 1.02.
On to ACGTCTTTCG, for which the switch fluorescence ratio turned out to be 0.958.
The figure for TCATCGTTAC is 1.4; for GGATTTTGCT it is 0.974.
For CATCCAATA, the switch fluorescence ratio was found to be 1.7.
The figure for GTGGACCCAT is 0.955; for CGATAGGTCG it is 0.977.
